The values that follow come from US7119075B2, “Use of herbal agents for potentiation of bioefficacy of anti infectives” (priority 2003, dated 2006).

Values after ≈ are worked out from the molar mass of the structure shown.

Assay [1] deals with Candida albicans ATCC 90028. Put plainly: Inhibitory effect of bioenhancers alone. It is filed as cell-based.
The test system of assay [2] is Candida parapsilosis ATCC 22019. Nature of the assay: Inhibitory effect of bioenhancers alone. The class given is cell-based.
Assay [3] has as its system Candida glabrata ATCC 90030. Nature of the assay: Inhibitory effect of bioenhancers alone. The class given is cell-based.
The next assay concerns M.tuberculosis H37Rv. The note with it: Rifampicin alone at 20 mg/kg, once a day 5 days a week for 4 weeks, lungs and spleen.
For another assay, the system named is M tuberculosis 611. Nature of the assay: microbe, parasite or virus in culture. Conditions: Mycobacterium tuberculosis.
The next assay deals with M tuberculosis 615. Nature of the assay: microbe, parasite or virus in culture. Conditions: Mycobacterium tuberculosis.
Another assay concerns M tuberculosis 616. Put plainly: microbe, parasite or virus in culture. The note with it: Mycobacterium tuberculosis.

As a reminder, the inhibition is the drop in the measured response relative to a control, in per cent. As to `O=C(/C=C/C=C/c1ccc2c(c1)OCO2)N1CCCCC1` [piperine], the inhibition at 0.2 µg/mL in assay [1] (Candida albicans, ATCC90028, conc. 0.2 μg/ml) worked out at 0%; in assay [2] (Lodderomyces parapsilosis, ATCC22019, conc. 0.2 μg/ml), 0%; in assay [3] (Nakaseomyces glabratus, ATCC90030, conc. 0.2 μg/ml), 0%. Further, the inhibition at 0.8 µg/mL in assay [1] (Candida albicans, ATCC90028, conc. 0.8 μg/ml) was 0%; in assay [2] (Lodderomyces parapsilosis, ATCC22019, conc. 0.8 μg/ml), 0%; in assay [3] (Nakaseomyces glabratus, ATCC90030, conc. 0.8 μg/ml), 0%. Further, the inhibition at 3.12 µg/mL came to 0% in assay [1] (Candida albicans, ATCC90028, conc. 3.12 μg/ml); 0% in assay [2] (Lodderomyces parapsilosis, ATCC22019, conc. 3.12 μg/ml); 0% in assay [3] (Nakaseomyces glabratus, ATCC90030, conc. 3.12 μg/ml). In addition, the inhibition at 12.5 µg/mL was found to be 0% in assay [1] (Candida albicans, ATCC90028, conc. 12.5 μg/ml); 0% in assay [2] (Lodderomyces parapsilosis, ATCC22019, conc. 12.5 μg/ml); 0% in assay [3] (Nakaseomyces glabratus, ATCC90030, conc. 12.5 μg/ml). For the same compound, the inhibition at 50 µg/mL turned out to be 0% in assay [1] (Candida albicans, ATCC90028, conc. 50 μg/ml); 0% in assay [2] (Lodderomyces parapsilosis, ATCC22019, conc. 50 μg/ml); 0% in assay [3] (Nakaseomyces glabratus, ATCC90030, conc. 50 μg/ml). Besides, the inhibition at 100 µg/mL in assay [1] (Candida albicans, ATCC90028, conc. 100 μg/ml) is 20%; in assay [2] (Lodderomyces parapsilosis, ATCC22019, conc. 100 μg/ml) it was 20%; in assay [3] (Nakaseomyces glabratus, ATCC90030, conc. 100 μg/ml), 20%.

On to “3′,5-Dihydroxy flavone 7-O-β-D-galacturonide-4′-O-β-D-glucopyranoside [pure molecule of Cuminum cyminum]”, for which the inhibitory effect entry in assay [1] (conc. 0.2 μg/ml), in assay [1] (conc. 0.8 μg/ml), in assay [1] (conc. 3.12 μg/ml), in assay [1] (conc. 12.5 μg/ml), in assay [1] (conc. 50 μg/ml) and in assay [1] (conc. 100 μg/ml) was “++++ (No inhibition)” in each case. The inhibitory effect result in assay [2] (conc. 0.2 μg/ml), in assay [2] (conc. 0.8 μg/ml), in assay [2] (conc. 3.12 μg/ml), in assay [2] (conc. 12.5 μg/ml), in assay [2] (conc. 50 μg/ml) and in assay [2] (conc. 100 μg/ml) was “++++ (No inhibition)” each time. The inhibitory effect entry in assay [3] (conc. 0.2 μg/ml), in assay [3] (conc. 0.8 μg/ml), in assay [3] (conc. 3.12 μg/ml), in assay [3] (conc. 12.5 μg/ml), in assay [3] (conc. 50 μg/ml) and in assay [3] (conc. 100 μg/ml) was “++++ (No inhibition)” each time.

For `CO[C@H]1/C=C/O[C@@]2(C)Oc3c(C)c(O)c4c(O)c(c(/C=N/N5CCN(C)CC5)c(O)c4c3C2=O)NC(=O)/C(C)=C\C=C\[C@H](C)[C@H](O)[C@@H](C)[C@@H](O)[C@@H](C)[C@H](OC(C)=O)[C@@H]1C` [Rifampicin], the “deduction in log 10 CFU” value in the assay on M.tuberculosis H37Rv is given as 2 log. In addition, the MIC with M tuberculosis 611 was 0.06 µg/mL (≈ 0.0729 µM); against M tuberculosis 615, 0.06 µg/mL (≈ 0.0729 µM); in the assay on M tuberculosis 616 it was 0.12 µg/mL (≈ 0.146 µM).
